Assay results: PubChem BioAssay AID360 (National Center for Advancing Translational Sciences (NCATS), 2006)
In all, about 48,000 compounds went through this assay and about 550 (1.1%) were called active. Not shown: some 4% with an inconclusive outcome. Rule as the data show it: active = potency below about 15 µM; inconclusive = mostly about 16 µM to 33 µM; inactive = weaker than that. Some of the results follow.

The molecules below were run against Lysosomal acid glucosylceramidase (Homo sapiens) (UniProt P04062) (assay: Glucocerebrosidase). Details: purified enzyme, resorufin glucoside fluorescence (screen aimed at inhibitors), 20 min.
Chain of UniProt P04062 (P04062 whole entry, looked up): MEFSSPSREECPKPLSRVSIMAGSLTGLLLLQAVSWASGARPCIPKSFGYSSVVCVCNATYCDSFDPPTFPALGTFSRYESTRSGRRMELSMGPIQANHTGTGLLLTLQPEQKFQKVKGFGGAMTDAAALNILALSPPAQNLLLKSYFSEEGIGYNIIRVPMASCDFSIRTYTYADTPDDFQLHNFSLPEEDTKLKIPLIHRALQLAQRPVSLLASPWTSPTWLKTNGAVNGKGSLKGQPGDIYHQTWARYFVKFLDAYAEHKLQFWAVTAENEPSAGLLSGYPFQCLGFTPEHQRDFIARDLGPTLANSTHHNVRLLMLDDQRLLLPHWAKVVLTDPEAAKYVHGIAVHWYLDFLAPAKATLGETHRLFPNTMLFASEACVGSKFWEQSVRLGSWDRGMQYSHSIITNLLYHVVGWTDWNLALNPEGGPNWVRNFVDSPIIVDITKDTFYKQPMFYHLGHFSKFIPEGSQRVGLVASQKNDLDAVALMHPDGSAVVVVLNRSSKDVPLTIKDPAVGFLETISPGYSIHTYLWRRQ
Summary of the method: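 Compounds titrated against 0.2 nM normal enzyme, 30 uM resorufin beta-D-glucopyranoside substrate, citrate/phosphate buffer with taurocholate and tween-20, pH 5.9. Reaction ran 20 min at room temperature; fluorescence (Ex 548/Em 600) gave AC50.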
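Also: the screen sought inhibitors.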
Potency is read from the fitted curve at half-maximal effect.

Row | Compound | Potency
1 | CCN(CC)C(=O)CN(C#N)c1nc(OC)nc(N(C)C)n1 | inactive: > 76.9 µM
2 | CN(C)CCCN1C(=O)C(=O)/C(=C(/O)c2ccc3c(c2)OCCO3)C1c1ccccn1 (stereo unspecified) | inactive: > 76.9 µM
3 | CCOc1ccc(N(Cc2cc3cc(OC)ccc3[nH]c2=O)C(=O)C2CCCO2)cc1 (stereo unspecified) | inactive: > 76.9 µM
4 | CC(C)C(NC(=O)C1CCCCC1)C(=O)N1CCN(c2ccc(F)cc2)CC1 (stereo unspecified) | inactive: > 76.9 µM
5 | Cn1c(=O)n(C)c2cc(CNc3ccc(N4CCOCC4)c(C(=O)O)c3)ccc21 | inactive: > 76.9 µM
6 | CCOC(=O)C1CN(c2cc3c(cc2F)c(=O)c(C(=O)O)cn3CC)OC1C(=O)OCC (stereo unspecified) | inactive: > 76.9 µM
7 | Cc1ccc(S(=O)(=O)NC(C)C(=O)NC2CCCCCC2)cc1 (stereo unspecified) | inactive: > 76.9 µM
8 | CCC(C)n1[nH]c(=O)cc1N (stereo unspecified) | inactive: > 76.9 µM
9 | CCC(C)Nc1nc(SC(C(C)=O)C(C)=O)nc(N(C)C)n1 (stereo unspecified) | inactive: > 76.9 µM
10 | COc1ccc2[nH]c(=O)c(CN(Cc3ccco3)Cc3nnnn3Cc3ccccc3)cc2c1 | inactive: > 76.9 µM
11 | COc1ccc(OC)c(C2=Nn3c(nnc3-c3cc(OC)c(OC)c(OC)c3)SC2)c1 | inactive: > 76.9 µM
12 | O=C(O)c1oc2ccccc2c1CN1CCN(c2ccccc2)CC1 | inactive: > 76.9 µM
13 | N#CC1=C(N)Oc2n[nH]c(-c3cccs3)c2C1c1cccs1 (stereo unspecified) | inactive: > 76.9 µM
14 | CCOC(=O)C1CCCN(S(=O)(=O)c2cc(Br)cc3c2N(C(=O)C2CC2)CC3)C1 (stereo unspecified) | inactive: > 76.9 µM
15 | CNC(=O)Cn1nc(C)c2ccccc2c1=O | inactive: > 76.9 µM
16 | Cc1cc2nc(NC3=NCN(Cc4cccnc4)CN3)nc(C)c2cc1C | inactive: > 76.9 µM
17 | CC(NC(=O)C(C)(C)C)c1nc2ccccc2n1C (stereo unspecified) | inactive: > 76.9 µM
18 | O=C(O)c1ccccc1NS(=O)(=O)c1ccccc1C(F)(F)F | inactive: > 76.9 µM
19 | COC(=O)c1ccccc1NC(=O)NCc1ccc2c(c1)OCO2 | inactive: > 76.9 µM
20 | Cc1ccc(Cn2c(SCC(=O)Nc3cccc(C)n3)nc3c2c(=O)n(C)c(=O)n3C)cc1 | inactive: > 76.9 µM
21 | COC(=O)CCS(=O)(=O)c1ccc(Cl)c(Cl)c1 | inactive: > 76.9 µM
22 | COCCCNC(=O)CCn1c(=O)c2ccccc2n(CC(=O)Nc2cc(Cl)ccc2C)c1=O | inactive: > 76.9 µM
23 | CCOC(=O)N1CCN(C(=O)Nc2sc3nc4n(c(=O)c3c2C)CCC(C)CC4)CC1 (stereo unspecified) | inactive: > 76.9 µM

Row | Compound | Potency
24 | Cc1c(NC(=O)c2cc(-n3cnnc3)ccc2Cl)cccc1-c1nc2ccccc2o1 | inactive: > 76.9 µM
25 | CC(=O)OC1CC(C)(C)N(OC(=O)c2ccccc2)C(C)(C)C1 | inactive: > 76.9 µM
26 | Cc1occc1-c1nc(-c2ccncc2)no1 | inactive: > 76.9 µM
27 | COc1ccccc1NC(=O)CSc1nc2ccccc2c(=O)n1CCNC(C)=O | inactive: > 76.9 µM
28 | CCOc1ccc(-n2c(=O)c3sccc3n(CC(=O)NCc3ccco3)c2=O)cc1 | inactive: > 76.9 µM
29 | CCOC(=O)N1CCC2(CC1)C(C#N)=C(N)Oc1c2sc2nc(C)cc(C)c12 | inactive: > 76.9 µM
30 | COc1ccccc1C1(CC(=O)O)CCOC(C(C)C)C1 (stereo unspecified) | inactive: > 76.9 µM
31 | CCCCNC(=O)OCCNC(=O)NC | inactive: > 76.9 µM
32 | CC1(C)CC(=O)c2c(noc2-c2ccccc2)C1 | inactive: > 76.9 µM
33 | Cn1cccc1C(=O)OCc1cc(Cl)cc2c1OCOC2 | active: 12.2 µM
34 | Cc1nc(C)n(CC(O)COc2ccc3cc(Br)ccc3c2)n1 (stereo unspecified) | inactive: > 76.9 µM
35 | O=C(Cn1cnc2c(nnn2Cc2ccc(F)cc2)c1=O)NCC1CCCO1 (stereo unspecified) | inactive: > 76.9 µM
36 | COc1ccc(CCNC(=O)C2CCCN2C(=O)Nc2cccc(C(C)=O)c2)cc1OC (stereo unspecified) | inactive: > 76.9 µM
37 | Cc1cccn2c(=O)c3cc(C(=O)N4c5ccccc5CC4C)n(C)c3nc12 (stereo unspecified) | inactive: > 76.9 µM
38 | CC(C)COc1ccc(-c2nnc(-c3ccco3)o2)cc1 | inactive: > 76.9 µM
39 | O=C(CNC(=O)c1cccs1)NCCN1CCN(c2ccccc2F)CC1 | inactive: > 76.9 µM
40 | CNC(=O)c1cc2cccc(OC)c2oc1=O | inactive: > 76.9 µM
41 | C/C(Cl)=C/Cn1c(SC(C)C)nc2c1c(=O)[nH]c(=O)n2C | inactive: > 76.9 µM
42 | Cc1cc(C(=O)CCC(=O)N2CCN(S(=O)(=O)c3cccs3)CC2)c(C)s1 | inactive: > 76.9 µM
43 | Cc1onc(-c2ccccc2Cl)c1C(N)=O | inactive: > 76.9 µM
44 | COCON1C(=O)CN(C(C)=O)C1c1ccc(Cl)cc1Cl (stereo unspecified) | inactive: > 76.9 µM
45 | O=C(CN(CCc1ccccc1)C(=O)Cn1nnc(-c2cccs2)n1)NCc1ccco1 | inactive
46 | CCc1cccc(C)c1NC(=O)CSc1nnc(-c2cc3cc(Br)ccc3o2)n1CC | inactive: > 76.9 µM
